B1: RS7-A132 (conjugate, chains of the INN, looked up)
heavy: QVQLQQSGSELKKPGASVKVSCKASGYTFTNYGMNWVKQAPGQGLKWMGWINTYTGEPTYTDDFKGRFAFSLDTSVSTAYLQISSLKADDTAVYFCARGGFGSSYWYFDVWGQGSLVTVSSASTKGPSVFPLAPSSKSTSGGTAALGCLVKDYFPEPVTVSWNSGALTSGVHTFPAVLQSSGLYSLSSVVTVPSSSLGTQTYICNVNHKPSNTKVDKRV[letters of human IgG1 Fc omitted]
light: DIQLTQSPSSLSASVGDRVSITCKASQDVSIAVAWYQQKPGKAPKLLIYSASYRYTGVPDRFSGSGSGTDFTLTISSLQPEDFAVYYCQQHYITPLTFGAGTKVEIKRTVAAPSVFIFPPSDEQLKSGTASVVCLLNNFYPREAKVQWKVDNALQSGNSQESVTEQDSKDSTYSLSSTLTLSKADYEKHKVYACEVTHQGLSSPVTKSFNRGEC
modifications: A132 drug-linker payload
B2: RS7-A146 (conjugate, chains of the INN, looked up)
heavy: B1 heavy
light: B1 light
modifications: A146 drug-linker payload
B3: RS7-A149 (conjugate, chains of the INN, looked up)
heavy: B1 heavy
light: B1 light
modifications: A149 drug-linker payload

Test system: BXPC-3 human pancreatic cancer cells
Test: In vivo anti-tumor activity, BXPC-3 xenograft (TROP2-targeting RS7 ADCs)
Parameters: species or system nude mice
Conditions: 30 mg/kg intravenously, once a week, 2 administrations; Figure 43
Procedure: BXPC-3 human pancreatic cancer cells (ATCC), which express medium to high levels of TROP2, were suspended in PBS, and 5×10^6 cells were subcutaneously transplanted into the right flank of female nude mice. Random grouping was performed on day 5. On the grouping day, the antibody-drug conjugates RS7-[…], RS7-[…], and RS7-[…] were administered intravenously via the tail vein at a dose of 30 mg/kg each. A negative control group was set up, receiving an equivalent dose of PBS via tail vein injection. Administration was performed once a week, for a total of 2 administrations. After administration, tumor volume was measured twice a week using calipers, and body weight was recorded. Tumor volume was calculated according to the following formula: V= 1/2×a×b^2, where a and b represent length and width, respectively.

Molecule | anti-tumor activity (tumor volume over time)
B1 | good anti-tumor activity
B2 | good anti-tumor activity
B3 | good anti-tumor activity

Source: patent EP4755398A1, “MULTIDRUG LINKER AND ANTIBODY-DRUG CONJUGATE” (priority 2023, dated 2025)
